These results are taken from patent US20220008504A1, “METHODS AND COMPOSITIONS FOR TREATMENT OF ABERRANT HEMATOPOIESIS” (The Methodist Hospital, priority 2019, published 2022).

In experiment [1] the test system is runx1 expression. Nature of the experiment: WISH analysis of runx1 expression in Aibp2-deficient zebrafish (HSC emergence). The settings on record: apoa1bp2 knockouts or morphants treated with atorvastatin; FIG. 2C.
Experiment [2] relates to Lin-Sca-1+c-Kit+ HSPCs. Further details: species or system mice. The settings on record: mouse, in vivo.

As for `CC(C)c1c(C(=O)Nc2ccccc2)c(-c2ccccc2)c(-c2ccc(F)cc2)n1CC[C@@H](O)C[C@@H](O)CC(=O)O` [Atorvastatin, atorvastatin], the runx1 expression result in experiment [1] is listed as “restored largely”.

Consider `C=C(C)[C@@H]1CC[C@]2(CO)CC[C@]3(C)[C@H](CC[C@@H]4[C@@]5(C)CC[C@H](O)C(C)(C)[C@@H]5CC[C@]43C)[C@@H]12` [betulin], for which the “HFD-induced increase in HSC numbers in the bone marrow” value in experiment [2] is given as “inhibited”.
